# From the supplement of paper PMC8728848
# This is one part of the list.
# Tests used:
# Assay in all cases: glycan array binding signal (z-score within array); higher = stronger binding
# Conditions in all cases: glycan notation: IUPAC condensed, linker removed
# Neu5Ac(a2-6)GalNAc = molecular target: Neu5Ac(a2-6)GalNAc
# Method in brief: (§1)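 The binding signal is a Z-score computed within each array. Data were drawn from 3228 arrays in the Consortium for Functional Glycomics database, restricted to those with a known protein sequence. Scores were averaged over arrays of the same protein sequence at different concentrations or buffers, and over linkers, and negative values can be taken as non-binding.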
# [1] = molecular target: Neu5Ac(a2-6)GalNAc(b1-4)GlcNAc
# Method in brief: as §1
# [2] = molecular target: Neu5Ac(a2-6)GlcNAc(b1-4)GlcNAc
# Method in brief: as §1
# [3] = molecular target: Neu5Ac(a2-6)GlcNAc(b1-4)GlcNAc(b1-4)GlcNAc
# Method in brief: as §1
# Neu5Ac(a2-8)Neu5Ac = molecular target: Neu5Ac(a2-8)Neu5Ac
# Method in brief: as §1
# [4] = molecular target: Neu5Ac(a2-8)Neu5Ac(a2-3)Gal(b1-4)Glc
# Method in brief: as §1
# [5] = molecular target: Neu5Ac(a2-8)Neu5Ac(a2-3)[GalNAc(b1-4)]Gal(b1-4)Glc
# Method in brief: as §1
# [6] = molecular target: Neu5Ac(a2-8)Neu5Ac(a2-8)Neu5Ac
# Method in brief: as §1
# [7] = molecular target: Neu5Ac(a2-8)Neu5Ac(a2-8)Neu5Ac(a2-3)Gal(b1-4)Glc
# Method in brief: as §1
# [8] = molecular target: Neu5Ac(a2-8)Neu5Ac(a2-8)Neu5Ac(a2-3)[GalNAc(b1-4)]Gal(b1-4)Glc
# Method in brief: as §1
# [9] = molecular target: Neu5Ac(a2-8)Neu5Ac(a2-8)Neu5Ac(a2-8)Neu5Ac(a2-3)[GalNAc(b1-4)]Gal(b1-4)Glc
# Method in brief: as §1
# [10] = molecular target: Neu5Ac(b2-6)Gal(b1-4)GlcNAc
# Method in brief: as §1
# Neu5Ac(b2-6)GalNAc = molecular target: Neu5Ac(b2-6)GalNAc
# Method in brief: as §1
# [11] = molecular target: Neu5Ac9Ac(a2-3)Gal(b1-3)GlcNAc
# Method in brief: as §1
# [12] = molecular target: Neu5Ac9Ac(a2-3)Gal(b1-4)GlcNAc
# Method in brief: as §1
# [13] = molecular target: Neu5Ac9Ac(a2-6)Gal(b1-4)GlcNAc
# Method in brief: as §1
# [14] = molecular target: Neu5Gc(a2-3)Gal(b1-3)GlcNAc
# Method in brief: as §1
# [15] = molecular target: Neu5Gc(a2-3)Gal(b1-3)[Fuc(a1-4)]GlcNAc
# Method in brief: as §1
# Neu5Gc(a2-3)Gal(b1-4)Glc = molecular target: Neu5Gc(a2-3)Gal(b1-4)Glc
# Method in brief: as §1
# [16] = molecular target: Neu5Gc(a2-3)Gal(b1-4)GlcNAc
# Method in brief: as §1
# [17] = molecular target: Neu5Gc(a2-3)Gal(b1-4)[Fuc(a1-3)]GlcNAc
# Method in brief: as §1
# [18] = molecular target: Neu5Gc(a2-6)Gal(b1-4)GlcNAc
# Method in brief: as §1
# Neu5Gc(a2-6)GalNAc = molecular target: Neu5Gc(a2-6)GalNAc
# Method in brief: as §1
# [19] = molecular target: Neu5Gc(b2-6)Gal(b1-4)GlcNAc
# Method in brief: as §1
binder,measurement,setting,value
"Tachylectin-2 (Tachypleus tridentatus), TAL2_TACTR (protein) VGGESMLRGVYQDKFYQGTYPQNKNDNWLARATLIGKGGWSNFKFLFLSPGGELYGVLNDKIYKGTPPTHDNDNWMGRAKKIGNGGWNQFQFLFFDPNGYLYAVSKDKLYKASPPQSDTDNWIARATEIGSGGWSGFKFLFFHPNGYLYAVHGQQFYKALPPVSNQDNWLARATKIGQGGWDTFKFLFFSSVGTLFGVQGGKFYEDYPPSYAHDNWLARAKLIGNGGWDDFRFLFF",glycan array binding signal (z-score),Neu5Ac(a2-6)GalNAc,3.68
same,glycan array binding signal (z-score),[1],-0.011
same,glycan array binding signal (z-score),[2],-0.293
same,glycan array binding signal (z-score),[3],-0.294
same,glycan array binding signal (z-score),Neu5Ac(a2-8)Neu5Ac,-0.05
same,glycan array binding signal (z-score),[4],-0.15
same,glycan array binding signal (z-score),[5],-0.349
same,glycan array binding signal (z-score),[6],-0.333
same,glycan array binding signal (z-score),[7],-0.333
same,glycan array binding signal (z-score),[8],-0.309
same,glycan array binding signal (z-score),[9],-0.334
same,glycan array binding signal (z-score),[10],-0.155
same,glycan array binding signal (z-score),Neu5Ac(b2-6)GalNAc,0.566
same,glycan array binding signal (z-score),[11],-0.296
same,glycan array binding signal (z-score),[12],-0.293
same,glycan array binding signal (z-score),[13],-0.074
same,glycan array binding signal (z-score),[14],-0.291
same,glycan array binding signal (z-score),[15],-0.316
same,glycan array binding signal (z-score),Neu5Gc(a2-3)Gal(b1-4)Glc,-0.35
same,glycan array binding signal (z-score),[16],-0.296
same,glycan array binding signal (z-score),[17],-0.122
same,glycan array binding signal (z-score),[18],-0.202
same,glycan array binding signal (z-score),Neu5Gc(a2-6)GalNAc,1.62
same,glycan array binding signal (z-score),[19],-0.055
